This note sets out measurements from PMC6220254.

Sequences of proteins named here, by UniProt entry; tags and fusion partners are left off. A change or cut given only in a name is not applied to a line headed by its entry.
UniProt Q60680: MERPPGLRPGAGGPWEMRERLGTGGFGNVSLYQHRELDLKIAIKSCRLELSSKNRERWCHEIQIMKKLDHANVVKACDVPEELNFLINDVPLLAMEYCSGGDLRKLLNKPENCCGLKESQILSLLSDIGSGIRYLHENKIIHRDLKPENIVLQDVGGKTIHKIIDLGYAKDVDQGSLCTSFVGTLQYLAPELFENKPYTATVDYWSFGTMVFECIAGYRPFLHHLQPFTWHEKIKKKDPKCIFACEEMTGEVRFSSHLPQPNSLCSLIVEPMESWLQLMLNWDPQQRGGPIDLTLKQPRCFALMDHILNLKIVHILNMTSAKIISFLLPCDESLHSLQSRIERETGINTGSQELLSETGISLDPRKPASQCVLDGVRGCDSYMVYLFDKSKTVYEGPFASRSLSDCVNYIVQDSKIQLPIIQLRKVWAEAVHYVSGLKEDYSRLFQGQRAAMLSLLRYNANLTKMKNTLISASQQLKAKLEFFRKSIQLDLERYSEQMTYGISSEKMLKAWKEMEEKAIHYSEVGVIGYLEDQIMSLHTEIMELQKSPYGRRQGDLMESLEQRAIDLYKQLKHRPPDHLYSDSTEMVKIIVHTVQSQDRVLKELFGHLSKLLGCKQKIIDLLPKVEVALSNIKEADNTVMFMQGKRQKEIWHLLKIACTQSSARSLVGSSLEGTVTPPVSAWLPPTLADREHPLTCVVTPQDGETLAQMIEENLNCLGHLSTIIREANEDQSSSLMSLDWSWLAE
UniProt O88522: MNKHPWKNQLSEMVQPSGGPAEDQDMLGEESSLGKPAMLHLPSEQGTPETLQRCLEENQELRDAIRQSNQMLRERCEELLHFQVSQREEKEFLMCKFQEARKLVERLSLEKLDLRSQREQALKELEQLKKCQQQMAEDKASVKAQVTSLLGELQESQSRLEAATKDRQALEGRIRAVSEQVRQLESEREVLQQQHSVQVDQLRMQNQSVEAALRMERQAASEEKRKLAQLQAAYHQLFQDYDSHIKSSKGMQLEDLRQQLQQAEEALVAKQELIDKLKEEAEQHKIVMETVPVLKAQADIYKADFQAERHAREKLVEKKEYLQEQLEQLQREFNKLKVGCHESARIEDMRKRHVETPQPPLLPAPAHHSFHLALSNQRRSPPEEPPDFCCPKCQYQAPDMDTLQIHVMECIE
UniProt Q60989: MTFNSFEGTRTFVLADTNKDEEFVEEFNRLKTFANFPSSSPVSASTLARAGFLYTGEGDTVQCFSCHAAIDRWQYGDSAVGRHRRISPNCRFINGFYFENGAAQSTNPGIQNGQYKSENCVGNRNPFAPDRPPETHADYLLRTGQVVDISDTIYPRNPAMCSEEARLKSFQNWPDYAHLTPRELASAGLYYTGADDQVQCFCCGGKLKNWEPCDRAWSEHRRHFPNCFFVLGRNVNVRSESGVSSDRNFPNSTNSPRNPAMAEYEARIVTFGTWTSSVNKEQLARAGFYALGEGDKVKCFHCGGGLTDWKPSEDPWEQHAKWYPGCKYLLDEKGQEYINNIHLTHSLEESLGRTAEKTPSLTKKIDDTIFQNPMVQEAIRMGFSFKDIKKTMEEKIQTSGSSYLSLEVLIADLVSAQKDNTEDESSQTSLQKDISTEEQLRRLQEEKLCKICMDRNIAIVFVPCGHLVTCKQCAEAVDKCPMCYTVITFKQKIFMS

This assay has as its target T1, myb-like SWIRM and MPN domains 1 (MYSM1) (mouse (endogenous in BMDMs)) (UniProt Q69Z66).
T1 sequence: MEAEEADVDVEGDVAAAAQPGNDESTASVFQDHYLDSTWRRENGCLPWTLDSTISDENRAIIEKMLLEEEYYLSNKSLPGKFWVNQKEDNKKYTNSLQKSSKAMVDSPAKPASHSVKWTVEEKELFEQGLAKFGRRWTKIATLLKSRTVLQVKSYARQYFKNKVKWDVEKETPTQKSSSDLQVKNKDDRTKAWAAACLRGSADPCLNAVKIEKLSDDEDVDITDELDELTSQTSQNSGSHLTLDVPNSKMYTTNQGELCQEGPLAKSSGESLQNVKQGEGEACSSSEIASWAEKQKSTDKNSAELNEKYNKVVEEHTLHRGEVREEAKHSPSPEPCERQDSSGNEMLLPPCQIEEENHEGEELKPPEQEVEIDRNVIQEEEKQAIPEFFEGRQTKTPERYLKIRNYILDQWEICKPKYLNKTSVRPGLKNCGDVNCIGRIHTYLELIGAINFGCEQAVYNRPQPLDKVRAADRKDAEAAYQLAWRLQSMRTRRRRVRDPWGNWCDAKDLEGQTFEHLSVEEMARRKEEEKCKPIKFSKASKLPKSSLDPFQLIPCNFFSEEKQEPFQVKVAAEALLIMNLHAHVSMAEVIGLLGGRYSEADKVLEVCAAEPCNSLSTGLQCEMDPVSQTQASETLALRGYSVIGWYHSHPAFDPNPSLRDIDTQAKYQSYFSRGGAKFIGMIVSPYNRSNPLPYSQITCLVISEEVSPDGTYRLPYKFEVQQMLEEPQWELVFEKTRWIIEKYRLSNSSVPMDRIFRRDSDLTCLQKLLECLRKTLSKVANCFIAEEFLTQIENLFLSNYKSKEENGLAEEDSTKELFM
The experiment in a line: co-IP; anti-MYSM1 immunoprecipitation (Fig. 4b; Fig. 2c: HOIP, MYSM1 or RIP2 immunoprecipitates) from cytoplasmic fractions of BMDMs stimulated with L18-MDP; immunoblot. A general note: A western blot detects proteins with antibodies after separation by electrophoresis.

Results are given in words; binding and its absence hold for the method and conditions named. Binding seen in cells or lysates may run through a third protein. Some entries that bind do so weakly or less than the wild type.

Consider “IKK complex (NEMO, IKKα/β) (from UniProt Q60680 1-745; O88351 1-757; O88522 1-412)”, for which the binding entry is “no binding”. On to “XIAP (from UniProt Q60989 1-496) (enzyme)”, for which the binding entry is reported as “binds”. To NEMO (from UniProt O88522 1-412) belongs “no binding”.

B1: TAB3 (protein, UniProt Q571K4 1-716)
chain: MAQNSPQLDIQVLHDLRQRFPEIPEGVVSQCMLQNNNNLEACCRALSQESSKYLYMEYHSPEDNRMNRNRLLHINLGIHSPSSYHPGDGAHLNGGRTLVHSSSDGHIDPQHTAGKQLICLVQEPHSAPAVVAATPNYNPFFMNEQNRSAATPPSQPPQQPSSMQTGMNPSAMQGPSPPPPPPSYMHIPRYSTNPITVTVSQNLPSGQTVPRALQILPQIPSNLYGSPGSIFIRQTSQSSSGRQTPQNAPWQSSPQGPVPHYSQRPLPVYPHQQNYQPSQYSPKQQQIPQSVYHSPPPSQCPSPFSSPQHQVQPPQLGHPSSHVFMPPSPSTTPPHLYQQGPPSYQKPGSHSVAYLPYTASSLPKGSMKKIEITVEPSQRPGTAITRSPSPISNQPSPRNQHSLYTATTPPSSSPSRGISSQPKPPFSVNPVYITYTQPTGPSCAPSPSPRVIPNPTTVFKITVGRATTENLLNLVDQEERSAAPEPIQPISVIPGSGGEKGNHKYQRSSSSGSDDYAYTQALLLHQRARMERLAKQLKLEKEELERLKAEVNSMEHDLMQRRLRRVSCTTAIPTPEEMTRLRSTNRQLQINVDCTLKEVDLLQSRGNFDPKAINNFYDHIEPGPVVPPKPSKKDSSDSCAIERKARRISVTSKAPVDIHDAQAAAADEHLSICKQSARTQPRDEDYEGAPWNCDSCTFLNHPALNRCEQCEMPRYT
In the case of B1, the binding result was “no binding”.

B2: CYLD (enzyme, UniProt Q80TQ2 1-952)
chain: MSSGLWSQEKVTSPYWEERIFYLLLQECSVTDKQTQKLLKVPKGSIGQYIQDRSVGHSRVPSTKGKKNQIGLKILEQPHAVLFVDEKDVVEINEKFTELLLAITNCEERLSLFRNRLRLSKGLQVDVGSPVKVQLRSGEEKFPGVVRFRGPLLAERTVSGIFFGVELLEEGRGQGFTDGVYQGKQLFQCDEDCGVFVALDKLELIEDDDNGLESDFAGPGDTMQVEPPPLEINSRVSLKVGESTESGTVIFCDVLPGKESLGYFVGVDMDNPIGNWDGRFDGVQLCSFASVESTILLHINDIIPDSVTQERRPPKLAFMSRGVGDKGSSSHNKPKVTGSTSDPGSRNRSELFYTLNGSSVDSQQSKSKNPWYIDEVAEDPAKSLTEMSSDFGHSSPPPQPPSMNSLSSENRFHSLPFSLTKMPNTNGSMAHSPLSLSVQSVMGELNSTPVQESPPLPISSGNAHGLEVGSLAEVKENPPFYGVIRWIGQPPGLSDVLAGLELEDECAGCTDGTFRGTRYFTCALKKALFVKLKSCRPDSRFASLQPVSNQIERCNSLAFGGYLSEVVEENTPPKMEKEGLEIMIGKKKGIQGHYNSCYLDSTLFCLFAFSSALDTVLLRPKEKNDIEYYSETQELLRTEIVNPLRIYGYVCATKIMKLRKILEKVEAASGFTSEEKDPEEFLNILFHDILRVEPLLKIRSAGQKVQDCNFYQIFMEKNEKVGVPTIQQLLEWSFINSNLKFAEAPSCLIIQMPRFGKDFKLFKKIFPSLELNITDLLEDTPRQCRICGGLAMYECRECYDDPDISAGKIKQFCKTCSTQVHLHPRRLNHSYHPVSLPKDLPDWDWRHGCIPCQKMELFAVLCIETSHYVAFVKYGKDDSAWLFFDSMADRDGGQNGFNIPQVTPCPEVGEYLKMSLEDLHSLDSRRIQGCARRLLCDAYMCMYQSPTMSLYK
Take B2: the binding entry is “no binding”.

B3: TAB2 (protein, UniProt Q99K90 1-693)
chain: MAQGSHQIDFQVLHDLRQKFPEVPEVVVSRCMLQNNNNLDACCAVLSQESTRYLYGEGDLNFSDESGISGLRNHMTSLNLDLQSQNVYHHGREGSRVNGSRTLTHSVSDGQLHGGQSNNELFQQEPQTAPAQVPQGFNVFGMPSTSGASNSTPHLGFHLGSKGTSNLSQQTPRFNPIMVTLAPNIQTGRSTPTSLHIHGVPPPVLNSPQGNSIYIRPYITTPSGTARQTQQHSGWVSQFNPMNPQQAYQPSQPGPWTTYPASNPLPHTSTQQPNQQGHQTSHVYMPISSPTTPQPPTIHSSGSSQSSAHSQYNIQNISTGPRKNQIEIKLEPPQRNSSSKLRSSGPRTASTSSLVNSQTLNRNQPTVYIAASPPNTDEMISRSQPKVYISANATAGDEQGMRNQPTLFISTNSGPSAASRNMSGQVSMGPAFIHHHPPKSRVLGGNSATSPRVVVTQPNTKYTFKITVSPNKPPAVSPGVVSPTFELTNLLNHPDHYVETENIQHLTDPALAHVDRISEARKLSMGSDDAAYTQALLVHQKARMERLQRELEMQKKKLDKLKSEVNEMENNLTRRRLKRSNSISQIPSLEEMQQLRSCNRQLQIDIDCLTKEIDLFQARGPHFNPSAIHNFYDNIGFVGPVPPKPKDQRSTIKAPKTQDAEDEEGAQWNCTACTFLNHPALIRCEQCEMPRHF
For B3, the binding entry is “no binding”.

B4: TAK1 (enzyme, UniProt Q62073 1-579)
chain: MSTASAASSSSSSSASEMIEAPSQVLNFEEIDYKEIEVEEVVGRGAFGVVCKAKWRAKDVAIKQIESESERKAFIVELRQLSRVNHPNIVKLYGACLNPVCLVMEYAEGGSLYNVLHGAEPLPYYTAAHAMSWCLQCSQGVAYLHSMQPKALIHRDLKPPNLLLVAGGTVLKICDFGTACDIQTHMTNNKGSAAWMAPEVFEGSNYSEKCDVFSWGIILWEVITRRKPFDEIGGPAFRIMWAVHNGTRPPLIKNLPKPIESLMTRCWSKDPSQRPSMEEIVKIMTHLMRYFPGADEPLQYPCQYSDEGQSNSATSTGSFMDIASTNTSNKSDTNMEQVPATNDTIKRLESKLLKNQAKQQSESGRLSLGASRGSSVESLPPTSEGKRMSADMSEIEARIVATAGNGQPRRRSIQDLTVTGTEPGQVSSRSSSPSVRMITTSGPTSEKPARSHPWTPDDSTDTNGSDNSIPMAYLTLDHQLQPLAPCPNSKESMAVFEQHCKMAQEYMKVQTEIALLLQRKQELVAELDQDEKDQQNTSRLVQEHKKLLDENKSLSTYYQQCKKQLEVIRSQQQKRQGTS
Take B4: the binding entry is “no binding”.

B5: NOD2 (receptor, UniProt Q8K3Z0 1-1020)
chain: MRSSCCDMCSQEEFQAQRSQLVALLISGSLEGFESILDWLLSWDVLSREDYEGLSLPGQPLSHSARRLLDTVWNKGVWGCQKLLEAVQEAQANSHTFELYGSWDTHSLHPTRDLQSHRPAIVRRLYNHVEAMLELAREGGFLSQYECEEIRLPIFTSSQRARRLLDLAAVKANGLAAFLLQHVRELPAPLPLPYEAAECQKFISKLRTMVLTQSRFLSTYDGSENLCLEDIYTENILELQTEVGTAGALQKSPAILGLEDLFDTHGHLNRDADTILVVGEAGSGKSTLLQRLHLLWATGRSFQEFLFIFPFSCRQLQCVAKPLSLRTLLFEHCCWPDVAQDDVFQFLLDHPDRVLLTFDGLDEFKFRFTDRERHCSPIDPTSVQTLLFNLLQGNLLKNACKVLTSRPDAVSALLRKFVRTELQLKGFSEEGIQLYLRKHHREPGVADRLIQLIQATSALHGLCHLPVFSWMVSRCHRELLLQNRGFPTTSTDMYLLILQHFLLHASPPDSSPLGLGPGLLQSRLSTLLHLGHLALRGLAMSCYVFSAQQLQAAQVDSDDISLGFLVRAQSSVPGSKAPLEFLHITFQCFFAAFYLAVSADTSVASLKHLFSCGRLGSSLLGRLLPNLCIQGSRVKKGSEAALLQKAEPHNLQITAAFLAGLLSQQHRDLLAACQVSERVLLQRQARARSCLAHSLREHFHSIPPAVPGETKSMHAMPGFIWLIRSLYEMQEEQLAQEAVRRLDIGHLKLTFCRVGPAECAALAFVLQHLQRPVALQLDYNSVGDVGVEQLRPCLGVCTALYLRDNNISDRGARTLVECALRCEQLQKLALFNNKLTDACACSMAKLLAHKQNFLSLRVGNNHITAAGAEVLAQGLKSNTSLKFLGFWGNSVGDKGTQALAEVVADHQNLKWLSLVGNNIGSMGAEALALMLEKNKSLEELCLEENHICDEGVYSLAEGLKRNSTLKFLKLSNNGITYRGAEALLQALSRNSAILEVWLRGNTFSLEEIQTLSSRDARLLL
As for B5, the binding result is reported as “binds”.

B6: A20 (enzyme, UniProt Q60769 1-775)
chain: MAEQLLPQALYLSNMRKAVKIRERTPEDIFKPTNGIIYHFKTMHRYTLEMFRTCQFCPQFREIIHKALIDRSVQASLESQKKLNWCREVRKLVALKTNGDGNCLMHAACQYMWGVQDTDLVLRKALCSTLKETDTRNFKFRWQLESLKSQEFVETGLCYDTRNWNDEWDNLVKMASADTPAARSGLQYNSLEEIHIFVLSNILRRPIIVISDKMLRSLESGSNFAPLKVGGIYLPLHWPAQECYRYPIVLGYDSQHFVPLVTLKDSGPELRAVPLVNRDRGRFEDLKVHFLTDPENEMKEKLLKEYLIVMEIPVQGWDHGTTHLINAAKLDEANLPKEINLVDDYFELVQHEYKKWQENSDQARRAAHAQNPLEPSTPQLSLMDIKCETPNCPFFMSVNTQPLCHECSERRQKNQSKLPKLNSKLGPEGLPGVGLGSSNWSPEETAGGPHSAPPTAPSLFLFSETTAMKCRSPGCPFTLNVQHNGFCERCHARQINASHTADPGKCQACLQDVTRTFNGICSTCFKRTTAEPSSSLTSSIPASCHQRSKSDPSQLIQSLTPHSCHRTGNVSPSGCLSQAARTPGDRAGTSKCRKAGCMYFGTPENKGFCTLCFIEYRENKQSVTASEKAGSPAPRFQNNVPCLGRECGTLGSTMFEGYCQKCFIEAQNQRFHEARRTEEQLRSSQHRDMPRTTQVASRLKCARASCKNILACRSEELCMECQHLSQRVGSVAHRGEPTPEEPPKQRCRAPACDHFGNAKCNGYCNECYQFKQMYG
B6: the binding entry is “no binding”.
